# Data taken from article PMC4336329 (PLoS ONE, 2015).
# In all, about 310,000 compounds went through this assay and about 14,000 (4.5%) showed an effect of 50% or more. Effects have a minus sign here. This is one part of the list.
# Biological target: human ether-à-go-go-related gene (hERG) potassium channel (human, UniProt Q12809)
# Test: primary screen, population patch clamp on CHO cells stably expressing hERG
# 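Further: peak tail current of the secondary pulse compared with the same well before compound.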
# human ether-à-go-go-related gene (hERG) potassium channel, sequence (Q12809 whole entry, looked up): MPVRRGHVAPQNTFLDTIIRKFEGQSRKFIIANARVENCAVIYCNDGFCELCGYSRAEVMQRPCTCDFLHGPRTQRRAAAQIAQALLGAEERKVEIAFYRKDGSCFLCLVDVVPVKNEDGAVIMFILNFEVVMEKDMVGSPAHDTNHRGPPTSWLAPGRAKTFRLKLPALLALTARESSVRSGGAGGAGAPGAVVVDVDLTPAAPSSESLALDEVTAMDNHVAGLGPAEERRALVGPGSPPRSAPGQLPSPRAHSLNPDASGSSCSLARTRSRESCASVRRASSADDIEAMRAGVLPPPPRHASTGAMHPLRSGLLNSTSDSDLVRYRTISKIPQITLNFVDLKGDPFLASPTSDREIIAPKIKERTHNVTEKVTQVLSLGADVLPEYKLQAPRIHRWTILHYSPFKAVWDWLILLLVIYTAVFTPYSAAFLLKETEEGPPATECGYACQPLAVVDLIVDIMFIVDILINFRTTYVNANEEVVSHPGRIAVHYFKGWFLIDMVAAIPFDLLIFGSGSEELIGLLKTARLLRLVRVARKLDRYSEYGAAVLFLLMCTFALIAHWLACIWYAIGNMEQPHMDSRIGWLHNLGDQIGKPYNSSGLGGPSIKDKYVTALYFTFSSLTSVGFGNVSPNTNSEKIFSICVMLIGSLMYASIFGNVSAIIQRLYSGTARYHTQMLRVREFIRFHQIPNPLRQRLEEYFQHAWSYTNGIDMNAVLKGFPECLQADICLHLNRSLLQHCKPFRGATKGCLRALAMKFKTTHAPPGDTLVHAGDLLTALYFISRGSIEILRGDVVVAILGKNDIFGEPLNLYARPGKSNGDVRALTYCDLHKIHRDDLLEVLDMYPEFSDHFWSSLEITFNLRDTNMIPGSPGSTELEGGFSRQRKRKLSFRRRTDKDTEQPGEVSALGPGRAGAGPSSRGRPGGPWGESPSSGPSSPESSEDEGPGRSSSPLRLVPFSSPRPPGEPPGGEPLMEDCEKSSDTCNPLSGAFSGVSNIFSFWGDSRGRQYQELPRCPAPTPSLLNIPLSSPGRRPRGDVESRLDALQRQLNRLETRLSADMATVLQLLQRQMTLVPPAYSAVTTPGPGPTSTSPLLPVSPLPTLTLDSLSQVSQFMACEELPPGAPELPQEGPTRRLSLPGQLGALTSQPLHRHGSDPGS
row,SMILES,"hERG current change (%, negative = inhibition) at 10uM"
1,Cc1nnc(NC(=O)CCC(=O)NC2CCCCCCC2)s1,17.2%
2,CCOC(=O)c1c(C)[nH]c(C(=O)COC(=O)c2[nH]c(C)c(C(C)=O)c2C)c1C,18.5%
3,CCOc1ccc(N2C(=O)CC(SCCN)C2=O)cc1.Cl (stereo not drawn),14.3%
4,O=C(CSc1nnc(SCc2ccc(Cl)cc2)s1)N/N=C/c1c(Cl)cccc1Cl,-11.5%
5,O=C(CN1CCN(C(=O)c2ccco2)CC1)Nc1cccc([N+](=O)[O-])c1,-49.1%
6,N#Cc1nc(-c2cccc3ccccc23)oc1NCCN1CCCCC1,-36.2%
7,Cc1c(NS(=O)(=O)c2cc([N+](=O)[O-])ccc2Cl)c(=O)n(-c2ccccc2)n1C,-10.4%
8,COc1cccc2cc(C(=O)Nc3ccc(F)cc3)c(=Nc3ccc(C(=O)O)cc3)oc12,20.7%
9,O=c1nc2n(c3ncccc13)CCC2,16.3%
10,CN(Cc1ccccc1)c1ccc(C(=O)O)cc1[N+](=O)[O-],23.5%
11,COc1cccc(-c2nc(C=O)cs2)c1,-25.8%
12,CC(C)C(NC(=O)c1cccs1)c1nnc(SCC(=O)Nc2nccs2)n1C (stereo not drawn),-11.4%
13,COCCNC(=O)C1CCC(CNS(=O)(=O)c2cccc3nsnc23)CC1 (stereo not drawn),17.8%
14,O=C(NCC(O)c1ccc([N+](=O)[O-])cc1)C(c1ccccc1)c1ccccc1 (stereo not drawn),-46.2%
15,C/C(=N\NC(=O)c1c(C)nc2ccccn12)c1cccc([N+](=O)[O-])c1,-17.5%
16,N#CCC(=O)N/N=C/c1ccc(OS(=O)(=O)c2ccccc2)cc1,-6.52%
17,O=C(NCc1ccccc1)NC(=O)c1ccc(Cl)cc1,20.5%
18,COc1cc(C2C(C#N)=C(N)Oc3c2ccc2ccccc32)ccc1OCC(=O)Nc1cccc(C)c1 (stereo not drawn),6.22%
19,NC(=S)N/N=C/c1ccc(-n2nncc2-c2ccc(Cl)cc2)cc1,-9.69%
20,O=C1/C(=C/c2ccc([N+](=O)[O-])cc2)N2CCC1CC2,-20.6%
21,CCNc1ccc([N+](=O)[O-])cc1,4.89%
22,CC(C)c1ccc(NC(=S)NN(c2ccccc2)c2ccccc2)cc1,12.7%
23,c1ccc([C@@H]2CO2)cc1,20.7%

row,SMILES,"hERG current change (%, negative = inhibition) at 10uM"
1,O=C(Nc1cccs1)NC1CCCC1,4.35%
2,CCCCCCCNC(=O)c1ccc(N2CCC3(CC2)OCCO3)c([N+](=O)[O-])c1,-15.1%
3,CC(=O)O.CC(NO)/C(=N\O)c1cccs1 (stereo not drawn),9.65%
4,COC(=O)C1=C(c2ccc(OC)c(OC)c2)C[C@@H]2CC[C@H]1N2C(=O)NCc1cccc2ccccc12,-10.5%
5,Cc1ccc(OCC(=O)N2CCN(S(C)(=O)=O)CC2)cc1,1.32%
6,Brc1ccc(-[n+]2c(-c3ccccc3)cc(-c3ccccc3)cc2-c2ccccc2)cc1.[O-][Cl+3]([O-])([O-])[O-],-73.8%
7,COc1ccc(S(N)(=O)=O)cc1C(=O)OCC1CCCCC1,-28%
8,CC1CCCCC12NC(=O)N(CC(=O)N1CCN(C(=O)c3cccs3)CC1)C2=O (stereo not drawn),8.03%
9,COc1cccc(/C=C2\CCC(C3CCCC3)C2=O)c1 (stereo not drawn),9.44%
10,O=C(CN1CC[n+]2c(-c3cccs3)csc21)c1ccc(-c2ccccc2)cc1.[Br-],-54.3%
11,CCO/C=C1\C(=O)N(CC)c2ccccc21,1.58%
12,CCC(C(=O)NCc1ccncc1)c1ccccc1 (stereo not drawn),13.7%
13,O=C(O)/C=C/C(=O)NCCCc1ccccc1,-6.6%
14,O=C(Nc1cccc2cccc(NC(=O)c3ccco3)c12)c1ccco1,7.14%
15,Cc1ccc(C2=C(O)c3ccccc3C(=O)C2=O)cc1,13.6%
16,O=C(COC(=O)CCCSc1nc2ccccc2[nH]1)Nc1cccc(F)c1,-11%
17,COc1ccc(CCNC(=O)CSc2ccsc2[N+](=O)[O-])cc1OC,4.43%
18,CCCc1c(O)nc(SCCN(CC)CC)[nH]c1=O.Cl,18.9%
19,Cc1nc(C)c(-c2csc(Nc3ccc(C(=O)O)c(O)c3)n2)s1,14.9%
20,Cc1c(NC(=O)c2nn(C)c(=O)c3ccccc23)c(=O)n(-c2ccccc2)n1C,15.3%
21,O=C1c2ccccc2CN1CCSC(=S)N1CCSCC1,2.67%
22,Cc1ccc(-c2ccc(S(=O)(=O)Nc3cccnc3)cc2)cc1,6.46%
